We go through 26 molecules from the antibiotic and cytotoxicity screens of Wong et al. (2023).

In one experiment the test system is HSkMC. Nature of the experiment: cytotoxicity call (relative viability < 0.9). Conditions: 10 µM.
For another experiment, the system named is HepG2. The experiment can be described thus: cytotoxicity call (relative viability < 0.9). Particulars: 10 µM.
Another experiment relates to S. aureus RN4220. The experiment can be described thus: growth inhibition call (relative growth <= 0.2). Particulars: 50 µM.

Some of the results follow.

Consider `C[C@@H]1CN([C@H](C)CO)C(=O)c2cc(NS(=O)(=O)c3ccccc3)ccc2O[C@@H](C)CCCCO[C@@H]1CN(C)S(=O)(=O)c1ccc(Cl)cc1`, for which the cytotoxicity call with HSkMC and with HepG2 was “inactive” each time. In addition, in the experiment on S. aureus RN4220, the growth inhibition call was “inactive”.

For the molecule `CNC[C@H]1Oc2c(NS(=O)(=O)c3cn(C)cn3)cccc2C(=O)N([C@H](C)CO)C[C@@H]1C`, the cytotoxicity call with HSkMC and with HepG2 was “inactive” in each case. The growth inhibition call in the experiment on S. aureus RN4220 was “inactive”.

For `Cc1ccc(S(=O)(=O)N(C)C[C@@H]2Oc3c(NC(=O)NC(C)C)cccc3C(=O)N([C@@H](C)CO)C[C@@H]2C)cc1`, the cytotoxicity call with HSkMC and with HepG2 was “inactive” each time. In addition, the growth inhibition call in the experiment with S. aureus RN4220 was “inactive”.

For `C[C@H](CO)N1C[C@H](C)[C@@H](CN(C)Cc2ccc3c(c2)OCO3)OCCCC[C@H](C)Oc2ccc(NS(=O)(=O)c3ccccc3)cc2C1=O`, the cytotoxicity call in the experiment on HSkMC and in the experiment on HepG2 was “inactive” each time. In addition, in the experiment with S. aureus RN4220, the growth inhibition call is “inactive”.

On to `CN(CCN)c1ccccc1`, for which the cytotoxicity call with HSkMC and in the experiment on HepG2 was “inactive” throughout. In addition, the growth inhibition call in the experiment on S. aureus RN4220 is “inactive”.

As to `O=C(C[C@@H]1CC[C@@H]2[C@H](COC[C@H](O)CN2C(=O)c2ccccc2)O1)NCCCN1CCOCC1`, the cytotoxicity call in the experiment on HSkMC and in the experiment with HepG2 was “inactive” throughout. In addition, in the experiment with S. aureus RN4220, the growth inhibition call is “inactive”.

As to `COc1ccc(CN(C)C[C@@H]2OCCCC[C@@H](C)Oc3ccc(NC(=O)c4ccncc4)cc3C(=O)N([C@@H](C)CO)C[C@H]2C)cc1`, the cytotoxicity call in the experiment on HSkMC and in the experiment with HepG2 was “inactive” in each case. The growth inhibition call in the experiment with S. aureus RN4220 was “inactive”.

Turning to `CN(C)CC(=O)N[C@@H]1CC[C@@H](CC(=O)O)O[C@@H]1CO`, the cytotoxicity call in the experiment on HSkMC and in the experiment with HepG2 was “inactive” in each case. The growth inhibition call in the experiment on S. aureus RN4220 was “inactive”.

Regarding `NC(=O)NCC#Cc1ccc2c(c1)[C@]1(C(=O)N2)[C@H](C(=O)Nc2nc3ccccc3s2)[C@H]2C(=O)O[C@H](c3ccccc3)[C@H](c3ccccc3)N2[C@@H]1c1ccccc1OCCO`, the cytotoxicity call in the experiment on HSkMC and with HepG2 was “inactive” throughout. In the experiment with S. aureus RN4220, the growth inhibition call was “inactive”.

As for `COc1ccc(NC(=O)N(C)C[C@@H]2OCCCC[C@@H](C)Oc3ccc(NS(=O)(=O)c4ccc(F)cc4)cc3C(=O)N([C@H](C)CO)C[C@@H]2C)cc1`, the cytotoxicity call in the experiment on HSkMC and with HepG2 was “inactive” throughout. The growth inhibition call with S. aureus RN4220 is “inactive”.

On to `C[C@H]1CN([C@@H](C)CO)C(=O)c2cccc(NC(=O)C3CC3)c2O[C@@H]1CN(C)Cc1ccc(Oc2ccccc2)cc1`, for which the cytotoxicity call in the experiment on HSkMC and in the experiment with HepG2 was “inactive” throughout. The growth inhibition call in the experiment with S. aureus RN4220 is “inactive”.

Regarding `CC(=O)N1CCCN(S(=O)(=O)N2CCOCC2)CC1`, the cytotoxicity call in the experiment with HSkMC and in the experiment on HepG2 was “inactive” throughout. For the same molecule, the growth inhibition call in the experiment on S. aureus RN4220 was “inactive”.

For the molecule `C[C@@H]1CN([C@@H](C)CO)C(=O)c2cccc(NC(=O)C3CC3)c2O[C@H]1CN(C)C(=O)NC1CCCCC1`, the cytotoxicity call in the experiment on HSkMC and in the experiment on HepG2 was “inactive” in each case. Also, in the experiment on S. aureus RN4220, the growth inhibition call was “inactive”.

Turning to `C[C@@H]1CCCCO[C@H](CN(C)C(=O)Nc2ccc(F)cc2)[C@@H](C)CN([C@@H](C)CO)C(=O)c2cc(NC(=O)C3CCCCC3)ccc2O1`, the cytotoxicity call with HSkMC and in the experiment with HepG2 was “inactive” throughout. Further, the growth inhibition call in the experiment on S. aureus RN4220 was “inactive”.

On to `C[C@@H]1CN([C@@H](C)CO)C(=O)c2cc(NS(=O)(=O)c3cn(C)cn3)ccc2O[C@H]1CN(C)C(=O)Nc1ccc(F)cc1`, for which the cytotoxicity call with HSkMC and in the experiment on HepG2 was “inactive” each time. In addition, the growth inhibition call in the experiment on S. aureus RN4220 was “inactive”.

`C[C@H](CO)N1C[C@H](C)[C@@H](CN(C)S(=O)(=O)c2ccc(F)cc2)OCCCC[C@H](C)Oc2ccc(NC(=O)Nc3ccc(F)cc3)cc2C1=O`: the cytotoxicity call with HSkMC and in the experiment on HepG2 was “inactive” each time. Further, the growth inhibition call in the experiment with S. aureus RN4220 is “inactive”.

With `O=C(C[C@H]1C=C[C@@H](NC(=O)c2cccnc2)[C@@H](CO)O1)NCc1ccncn1`, the cytotoxicity call with HSkMC and in the experiment with HepG2 was “inactive” in each case. Further, the growth inhibition call in the experiment on S. aureus RN4220 is “inactive”.

Turning to `CC(C)NC(=O)N(C)C[C@@H]1Oc2c(NC(=O)C3CCOCC3)cccc2C(=O)N([C@H](C)CO)C[C@H]1C`, the cytotoxicity call in the experiment with HSkMC and with HepG2 was “inactive” each time. Also, the growth inhibition call with S. aureus RN4220 is “inactive”.

On to `COc1cccc(-c2ccc3c(c2)O[C@H](CN(C)C(=O)C2CCOCC2)[C@H](C)CN([C@H](C)CO)S3(=O)=O)c1`, for which the cytotoxicity call in the experiment with HSkMC and in the experiment on HepG2 was “inactive” in each case. Moreover, the growth inhibition call in the experiment on S. aureus RN4220 is “inactive”.

Consider `Cc1noc(C)c1NC(=O)N(C)C[C@@H]1Oc2c(NC(=O)c3cnccn3)cccc2C(=O)N([C@@H](C)CO)C[C@@H]1C`, for which the cytotoxicity call in the experiment with HSkMC and in the experiment with HepG2 was “inactive” in each case. In addition, the growth inhibition call with S. aureus RN4220 is “inactive”.

For `CO[C@H](CN(C)S(=O)(=O)c1cccc(Cl)c1)[C@H](C)CN([C@@H](C)CO)S(=O)(=O)c1ccc(Cl)cc1`, the cytotoxicity call in the experiment with HSkMC and in the experiment on HepG2 was “inactive” each time. Also, the growth inhibition call with S. aureus RN4220 is “inactive”.

`C=CCOC(=O)[C@@H]1[C@H]2C(=O)O[C@H](c3ccccc3)[C@H](c3ccccc3)N2[C@H](c2ccc(OCCOC(=O)[C@H]3C[C@H]4C(=O)NCC(=O)N4[C@H]3c3ccc(O)cc3)cc2)[C@@]12C(=O)Nc1ccccc12`: the cytotoxicity call in the experiment on HSkMC and in the experiment with HepG2 was “inactive” each time. For the same molecule, in the experiment with S. aureus RN4220, the growth inhibition call was “inactive”.

On to `CCC(=O)O.[NaH]`, for which the cytotoxicity call with HSkMC and with HepG2 was “inactive” each time. For the same molecule, the growth inhibition call with S. aureus RN4220 was “inactive”.

As to `COc1ccccc1NC(=O)C1=C(C)N=C(SCC(=O)Nc2ccccc2[N+](=O)[O-])C(C#N)[C@@H]1c1ccccc1F` (stereo partly drawn), the cytotoxicity call with HSkMC and with HepG2 was “inactive” each time. In addition, in the experiment on S. aureus RN4220, the growth inhibition call was “inactive”.

As for `C[C@@H]1CN([C@H](C)CO)C(=O)c2cccc(NC(=O)c3cnccn3)c2O[C@H]1CN(C)Cc1ccccc1`, the cytotoxicity call in the experiment on HSkMC (human skeletal muscle cells) was “inactive”. The cytotoxicity call in the experiment on HepG2 is “active”. Further, the growth inhibition call with S. aureus RN4220 is “inactive”.

On to `C[C@H]1CN([C@@H](C)CO)C(=O)Cc2cc(NC(=O)Nc3ccc(C(F)(F)F)cc3)ccc2O[C@@H]1CN(C)Cc1ccc(C(=O)Nc2ccccc2N)cc1`, for which the cytotoxicity call in the experiment with HSkMC and in the experiment on HepG2 was “inactive” in each case. In the experiment on S. aureus RN4220, the growth inhibition call was “inactive”.
